Source: article PMC4103893
No constants are given. Whether binding was seen depends on the method and setting. In cells and extracts the contact can be indirect. Some results given as binding are weak or reduced against the parent protein; the word gives no strength. Where a sequence is shown, tags or fusion partners need not be part of it.

Chains of the proteins cited; added tags and fusions are not shown. Residues count along the entry.
UniProt P78536, residues 694-824: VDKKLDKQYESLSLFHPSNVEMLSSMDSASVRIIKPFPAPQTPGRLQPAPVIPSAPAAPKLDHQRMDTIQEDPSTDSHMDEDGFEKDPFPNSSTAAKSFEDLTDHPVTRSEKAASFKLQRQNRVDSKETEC

B1: HA-tagged SNX18 (protein, UniProt Q96RF0 1-628)
chain: MALRARALYDFRSENPGEISLREHEVLSLCSEQDIEGWLEGVNSRGDRGLFPASYVQVIRAPEPGPAGDGGPGAPARYANVPPGGFEPLPVAPPASFKPPPDAFQALLQPQQAPPPSTFQPPGAGFPYGGGALQPSPQQLYGGYQASQGSDDDWDDEWDDSSTVADEPGALGSGAYPDLDGSSSAGVGAAGRYRLSTRSDLSLGSRGGSVPPQHHPSGPKSSATVSRNLNRFSTFVKSGGEAFVLGEASGFVKDGDKLCVVLGPYGPEWQENPYPFQCTIDDPTKQTKFKGMKSYISYKLVPTHTQVPVHRRYKHFDWLYARLAEKFPVISVPHLPEKQATGRFEEDFISKRRKGLIWWMNHMASHPVLAQCDVFQHFLTCPSSTDEKAWKQGKRKAEKDEMVGANFFLTLSTPPAAALDLQEVESKIDGFKCFTKKMDDSALQLNHTANEFARKQVTGFKKEYQKVGQSFRGLSQAFELDQQAFSVGLNQAIAFTGDAYDAIGELFAEQPRQDLDPVMDLLALYQGHLANFPDIIHVQKGKAWPLEQVIWSVLCRLKGATLTAVPLWVSESYSTGEEASRDVDAWVFSLECKLDCSTGSFLLEYLALGNEYSFSKVQRVPLMTVLSF
B2: HA-tagged SNX33 (protein, UniProt Q8WV41 1-574)
chain: MALKGRALYDFHSENKEEISIQQDEDLVIFSETSLDGWLQGQNSRGETGLFPASYVEIVRSGISTNHADYSSSPAGSPGAQVSLYNSPSVASPARSGGGSGFLSNQGSFEEDDDDDWDDWDDGCTVVEEPRAGGLGTNGHPPLNLSYPGAYPSQHMAFRPKPPLERQDSLASAKRGSVVGRNLNRFSCFVRSGVEAFILGDVPMMAKIAETYSIEMGPRGPQWKANPHPFACSVEDPTKQTKFKGIKSYISYKLTPTHAASPVYRRYKHFDWLYNRLLHKFTVISVPHLPEKQATGRFEEDFIEKRKRRLILWMDHMTSHPVLSQYEGFQHFLSCLDDKQWKMGKRRAEKDEMVGASFLLTFQIPTEHQDLQDVEDRVDTFKAFSKKMDDSVLQLSTVASELVRKHVGGFRKEFQKLGSAFQAISHSFQMDPPFCSEALNSAISHTGRTYEAIGEMFAEQPKNDLFQMLDTLSLYQGLLSNFPDIIHLQKGAFAKVKESQRMSDEGRMVQDEADGIRRRCRVVGFALQAEMNHFHQRRELDFKHMMQNYLRQQILFYQRVGQQLEKTLRMYDNL

Experiments:
[1] = target: T1, GST-hADAM10(697–748) (human) (UniProt O14672); assay: pull-down; 10 or 25 µg of GST, GST-hADAM10(697–748) or GST-hADAM17(694–824); lysates of HEK 293T cells transfected with HA-tagged sorting nexins or myc-tagged PACSINs; blots against the HA- or myc-tag; only the target purified
T1 sequence: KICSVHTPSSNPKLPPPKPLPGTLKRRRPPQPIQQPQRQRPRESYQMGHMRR

[2] = target: GST-hADAM17(694–824) (human) (UniProt P78536); assay: as above

| Binder | binding [1] | binding [2] |
| --- | --- | --- |
| B1 | binds | binds |
| B2 | binds | binds |
